Results from the RNAGym collection of RNA variant scans (doi:10.1093/nar/gkz1192).
The source gives no read counts; variants with many changes may rest on few reads.

B1: CPEB3 Ribozyme (parent)
chain: UAACAGGGGGCCACAGCAGAAGCGUUCACGUCGCAGCCCCUGUCAGAUUCUGGUGAAUCUGCGAAUUCUGCUGUAUAUCUC

Variants of: B1
Experiment: self-cleavage, relative activity (ratio to wild type); higher = more cleavage; in vitro, sequencing
Summary of the method: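 CPEB3 self-cleaving ribozyme mutant libraries were made by rounds of error-prone PCR, barcoded, and transcribed in vitro with T7 RNA polymerase for 5 hours at 37°C. Cleavage occurred during transcription and a 15 min DNase I step before EDTA stop. RNAs were reverse transcribed with template switching and Illumina-sequenced, with DNA sequencing mapping barcodes to variants. Relative activity is the variant's cleaved/total read fraction divided by wild type's (minimum 5 reads), averaged across three batches.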

| Variant | self-cleavage |
| --- | --- |
| UAACAGGGGGCCACUGCAGAAGCGUUCACGUCGCAGCCCCUGUCAGAUUCUGGUGAAUCUGCGAAUUCCGCUGUAAAUCUC [A15U U69C U76A] | 0.36 |
| UAACAGGGGGCCACUGCAGAAGCGUUCACGUCGCAGCCCCUGUCAGAUUCUGGUGAAUCUGCGAAUUCUGCCGUAAAUCUC [A15U U72C U76A] | 0.58 |
| UAACAGGGGGCCACAACGGAAGCGUUCACGCCGCAGCCCCUGUCAGAUUCUGGUGAGUCUGCGAAUUCUGCUGCAUAACUC [G16A A18G U31C A57G U74C U78A] | 0.26 |
| UAACAGGGGGCCACAACGGAAGCGUUCACGUCGCAGCCCCUGUCAGAUUCUGGUGAAUCUGCGAAUUCUGCUGUAUAACUC [G16A A18G U78A] | 0.28 |
| UAACAGGGGGCCACAACAGGAGCGUUCACGUCGCAGCCCCUGUCUGAUCCUGGUGAAUCUGCGAAUUCUGCUGUAUAUCUC [G16A A20G A45U U49C] | 0.17 |
| UAACAGGGGGCCACAACAGGAGCGUUCACGUCUCAGCCCUUGUCAGUUUCUGGUGAAUCUGCGAGUUCUGCUGUAUAUCUC [G16A A20G G33U C40U A47U A65G] | 0.05 |
| UAACAGGGGGCCACAACAGGAGCGCUCACGUCGCAGCCCCUGUCAGAUUCUGGUGAAUCUGCGAAUUCUGCUGUAUAUCUC [G16A A20G U25C] | 0.19 |
| UAACAGGGGGCCACAACAGGAGCGUUCACGUCGCAGCCCCCGUCAGAUUCUGGUGAAUCUGCGAAUUCUGCUGUAUAUCUC [G16A A20G U41C] | 0.13 |
| UAACAGGGGGCCACAACAGGAGCGUUCACGUCGCAGCCCCUGUCAGAUUCUGGAGAAUCUGCGAAUUCUGCUGUAUAUCUC [G16A A20G U54A] | 0.25 |
| UAACAGGGGGCCACAACAGUAGCGUUCACGUCGCGGCCCCUGUCAGAUUCUGGUGAAUCUGCGAAUUCUGCUGUAUAUCUC [G16A A20U A35G] | 0.2 |
| UAACAGGGGGCCACAACAGAGGCGUUCACGUCGCAGCCCCUGUCAGAUUCUGGUGUAUCUGCGAAUUCUGCUGUAUACCUC [G16A A21G A56U U78C] | 0.14 |
| UAACAGGGGGCCACAACAGAGGCGUUCACGCCGCAGCCCCUGUCAGAUUCAGGUGAACCUGCGAAUUCUGCUGUGUAUCUC [G16A A21G U31C U51A U58C A75G] | 0.05 |
| UAACAGGGGGCCACAACAGAGGCGUUCACGUCGCAGCCCCUGUCAGAUUCCGGUGAAUUGGCGAAUUCUUCUGUAUAUCUC [G16A A21G U51C C59U U60G G70U] | 0.01 |
| UAACAGGGGGCCACAACAGAUGCGUUCACGUCGCAGCCCCUGUCAGACUCAGGUGAAUCUGCGAAUUCUGCUGUAUAUCUC [G16A A21U U48C U51A] | 0.14 |
| UAACAGGGGGCCACAACAGAAGCGUUCGCGUCGCAGCCCCAGUCAGAUUCUGGUGAAUCCGCGAAUUCUGCUGUAUAUCUC [G16A A28G U41A U60C] | 0.08 |
| UAACAGGGGGCCACAACAGAAGCGUUCGCGUCGCAGCCCCUGUCAGAUUCUGGUGAAUCUGCGAAUUCUGCAGUAUCUCCC [G16A A28G U72A A77C U80C] | 0.33 |
| UAACAGGGGGCCACAACAGAAGCGUUCUCGCCGCAGCCCCUGUCAGAUUCUGGUGAAUCCGCGAAUUCUGCUGUAUAUCUC [G16A A28U U31C U60C] | 0.14 |

| Variant | self-cleavage |
| --- | --- |
| UAACAGGGGGCCACAACAGAAGCGUUCUCGUCGCAGCCCCUGGCUGAUCCUGGCGAAUCUGCGGAUUCUGCUGUAUAUCUC [G16A A28U U43G A45U U49C U54C A64G] | 0.06 |
| UAACAGGGGGCCACAACAGAAGCGUUCACGUCGCAGCCCCUGUCGGAUUCUGGAGAAUCCGCGAAUUCUGCUGUAUAUCCC [G16A A45G U54A U60C U80C] | 1.19 |
| UAACAGGGGGCCACAACAGAAGCGUUCACGUCGCAGCCCCUGUCGGAUUCUGGUGAAUCUGCGAAUCCUGCUGUAUAUCUC [G16A A45G U67C] | 0.11 |
| UAACAGGGGGCCACAACAGAAGCGUUCACGUCGCAGCCCCUGUCAGGUUCUGGUGAAUCUGUGAAUUCUGCUGUAUAUCUC [G16A A47G C62U] | 0.33 |
| UAACAGGGGGCCACAACAGAAGCGUUCACGUCGCAGCCCCUGUCAGGUUCUGGUGAAUCUGCGAAUUCUGCAGUAUAUCUC [G16A A47G U72A] | 0.18 |
| UAACAGGGGGCCACAACAGAAGCGUUCACGUCGCAGCCCCUGUCAGAUUCUGGUGGACCUGCGAAUUCUGCUGUAUAUCUC [G16A A56G U58C] | 0.09 |
| UAACAGGGGGCCACAACAGAAGCGUUUUCGUCGCAGCCCCUGUCAGAUUCUGGUGGAUCUGCGAGUUCUGCUGUAUAUCUC [G16A C27U A28U A56G A65G] | 0.14 |
| UAACAGGGGGCCACAACAGAAGCGUUCAAGUCGCAGCCCCUGACAGAUUCUGGUGUAUCUGCGUAUUCUGCUGCAUACCUC [G16A C29A U43A A56U A64U U74C U78C] | 0.06 |
| UAACAGGGGGCCACAACAGAAGCGUUCACGUUGCAGCCUCUGUCAGAUUCUGGUGAAUCUGCGAAUUCUGCUGUAUAUCUC [G16A C32U C39U] | 0.07 |
| UAACAGGGGGCCACAACAGAAGCGUUCACGUUGCAGCCCCUGUCAGAUUCUGGUGAAUCAGAGAAUUCUGCUGUAUAUCUC [G16A C32U U60A C62A] | 0.06 |
| UAACAGGGGGCCACAACAGAAGCGUUCACGUUGCAGCCCCUGUCAGAUUCUGGUGAAUCUGCGAAUUCUGCGGUAUAUCUC [G16A C32U U72G] | 0.13 |
| UAACAGGGGGCCACAACAGAACCGUUCACGUCGCAGCCCCUGUCGGAUUCUGGUGAAUCCGCGAAUUCUGCUGUAUAUCUC [G16A G22C A45G U60C] | 0.15 |
| UAACAGGGGGCCACAACAGAAGCACUCACGUCGCAGCCCCUGUCAGAUACUGCUGAAUCUGCGAAUUCUGCUGUAUAUCUC [G16A G24A U25C U49A G53C] | 0.05 |
| UAACAGGGGGCCACAACAGAAGCGUUCACAUCGCAGCCCCUGUCAGAUUCUGGUGAAUCUGCGGAUUCUGCUGUAUAUCUC [G16A G30A A64G] | 0.07 |
| UAACAGGGGGCCACAACAGAAGCGUUCACUUCGCAGCCCAUGUCAGAUUCUGGUGAAUCUGCGAAUUCAGCAGCAUAUCUC [G16A G30U C40A U69A U72A U74C] | 0.07 |
| UAACAGGGGGCCACAACAGAAGCGAUCACGUCGCAGCCCCUGUCAGAUUCAGGAGAAUCUGCGAAUUCUGCUGUAUAUCUC [G16A U25A U51A U54A] | 0.06 |
| UAACAGGGGGCCACAACAGAAGCGCUCUCGUCGCAGCCCCUGUCAGAUUCUGGUGAAUCUGCGAAUUCUGCUGUAUAUCAC [G16A U25C A28U U80A] | 0.1 |
